# In the supplement of paper PMC7826260:
# Some of the results follow. One pool of 16,384 single-stranded DNAs met each Rep nickase domain in vitro (1 h at 37 °C, 3 µM enzyme); the outer parts of the 90-letter strands are left off. Numbers give uncut DNA relative to the enzyme-free pool, as log2; uncut sequences lie near 0, cut ones below; no hit call is given. Counts are relative to all reads; uncut strands gain when others are lost, and binding without cutting may add a little.
# Tests used:
# Experiment in all cases: uncleaved DNA left, log2 of reads against the no-enzyme library (log2 ratio); higher = less cleavage (more negative = more Rep cleavage of the k-mer); sequences stand for … in CTCGTCCG…ACCGGAGA
# [1] = test system: T1, Rep nickase domain of Muscovy duck circovirus
# T1 sequence (residues 1-111, tag not shown): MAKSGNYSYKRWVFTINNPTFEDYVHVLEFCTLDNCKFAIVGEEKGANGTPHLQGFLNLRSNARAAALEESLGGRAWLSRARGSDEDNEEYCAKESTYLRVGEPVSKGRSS
# Method: (§1)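 A pool of 90-nt single-stranded DNAs with seven random bases just before the constant AC of the nick site (name = the seven bases) was cut by 3 µM recombinant His6-SUMO-tagged Rep nickase domain (300 nM DNA, 50 mM HEPES pH 8.0, 50 mM NaCl, 1 mM MnCl2, 1 h, 37 °C, three replicates). Uncut DNA was amplified and sequenced.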
# [2] = test system: T2, Rep nickase domain of banana bunchy top virus
# T2 sequence (residues 1-94, tag not shown): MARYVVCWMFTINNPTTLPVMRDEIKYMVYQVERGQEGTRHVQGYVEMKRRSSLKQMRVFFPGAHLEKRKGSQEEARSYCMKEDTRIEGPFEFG
# Method: as §1
# [3] = test system: T3, Rep nickase domain of cabbage leaf curl virus
# T3 sequence (residues 1-116, tag not shown): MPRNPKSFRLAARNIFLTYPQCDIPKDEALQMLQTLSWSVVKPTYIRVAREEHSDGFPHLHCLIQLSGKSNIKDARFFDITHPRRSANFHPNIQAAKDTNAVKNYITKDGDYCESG
# Method: as §1
# [4] = test system: T4, Rep nickase domain of chickpea chlorotic dwarf virus
# T4 sequence (residues 1-124, tag not shown): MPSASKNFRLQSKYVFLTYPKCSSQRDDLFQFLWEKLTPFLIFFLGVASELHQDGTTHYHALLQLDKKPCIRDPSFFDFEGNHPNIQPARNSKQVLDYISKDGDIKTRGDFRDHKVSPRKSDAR
# Method: as §1
# [5] = test system: T5, Rep nickase domain of faba bean necrotic yellows virus
# T5 sequence (residues 1-98, tag not shown): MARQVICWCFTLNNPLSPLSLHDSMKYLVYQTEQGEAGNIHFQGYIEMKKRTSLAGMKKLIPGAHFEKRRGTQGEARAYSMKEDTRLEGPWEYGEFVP
# Method: as §1
# [6] = test system: T6, Rep nickase domain of maize striate mosaic virus
# T6 sequence (residues 1-117, tag not shown): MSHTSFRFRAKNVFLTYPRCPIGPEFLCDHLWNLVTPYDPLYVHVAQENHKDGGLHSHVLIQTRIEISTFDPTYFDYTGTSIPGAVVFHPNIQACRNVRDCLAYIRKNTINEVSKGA
# Method: as §1
# [7] = test system: T7, Rep nickase domain of porcine circovirus 2
# T7 sequence (residues 2-116, tag not shown): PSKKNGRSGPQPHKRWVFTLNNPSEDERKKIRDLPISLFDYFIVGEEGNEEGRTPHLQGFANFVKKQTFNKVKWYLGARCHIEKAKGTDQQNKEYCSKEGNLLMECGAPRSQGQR
# Method: as §1
# [8] = test system: T8, Rep nickase domain of tomato golden mosaic virus
# T8 sequence (residues 1-124, tag not shown): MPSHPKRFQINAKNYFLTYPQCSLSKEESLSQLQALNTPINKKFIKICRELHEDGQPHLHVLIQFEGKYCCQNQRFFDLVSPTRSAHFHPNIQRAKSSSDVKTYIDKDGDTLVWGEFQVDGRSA
# Method: as §1
# [9] = test system: T9, Rep nickase domain of tomato yellow leaf curl virus
# T9 sequence (residues 1-136, tag not shown): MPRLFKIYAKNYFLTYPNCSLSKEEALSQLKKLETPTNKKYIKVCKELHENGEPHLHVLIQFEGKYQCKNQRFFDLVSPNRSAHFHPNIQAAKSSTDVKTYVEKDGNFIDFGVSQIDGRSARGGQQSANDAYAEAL
# Method: as §1
# [10] = test system: T10, Rep nickase domain of wheat dwarf virus
# T10 sequence (residues 1-137, tag not shown): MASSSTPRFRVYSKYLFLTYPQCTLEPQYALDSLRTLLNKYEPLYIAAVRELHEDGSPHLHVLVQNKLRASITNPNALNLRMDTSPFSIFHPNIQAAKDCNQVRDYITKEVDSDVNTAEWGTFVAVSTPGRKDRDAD
# Method: as §1
Sequence,uncleaved DNA left (log2) [1],uncleaved DNA left (log2) [2],uncleaved DNA left (log2) [3],uncleaved DNA left (log2) [4],uncleaved DNA left (log2) [5],uncleaved DNA left (log2) [6],uncleaved DNA left (log2) [7],uncleaved DNA left (log2) [8],uncleaved DNA left (log2) [9],uncleaved DNA left (log2) [10]
TCCAGTG,0.0885,-0.105,-0.573,-0.777,-0.0148,-1.05,0.0794,-0.0347,0.0253,-0.24
CATAACC,-0.251,-0.0804,-0.483,-1.88,-0.0559,-0.93,-0.693,-0.0737,-0.1,-0.0654
ACAAAAC,-0.0541,0.0235,-0.132,-0.375,0.0703,-0.817,0.177,0.0533,-0.057,0.0154
TAGGTTC,-0.00755,-0.0567,0.226,-0.0184,-0.0799,1.01,-0.0711,-0.068,-0.0144,0.0543
AGTGGCA,0.0886,0.071,0.14,0.555,0.0723,0.567,-0.0324,0.11,-0.0428,-0.0729
AGTCGCT,0.0233,0.0178,0.175,0.657,-0.0733,0.918,-1.35,0.00731,0.0568,-0.0496
CGGACTC,-0.167,0.00613,0.595,1.51,-0.132,1.95,-0.0535,-0.14,-0.141,0.0803
GATGTCA,0.142,0.14,0.36,0.518,-0.033,1.14,0.109,0.147,0.142,0.213
CATCGCG,-0.0746,-0.0653,-0.748,0.101,0.0611,-0.579,0.139,-0.146,0.0455,-0.0393
CATCACA,0.0527,0.0832,-0.219,-2.36,-0.00782,-0.675,-0.0221,-0.0408,0.0148,-0.0324
ATTAGGG,0.169,0.0773,-0.229,-0.178,0.046,-0.867,0.159,0.153,0.104,-0.0104
TTAGAGC,0.0118,-0.0637,-0.0582,-0.316,-0.0367,-0.871,0.204,-0.0398,-0.121,-0.0128
GCTCTAC,0.121,-0.00813,-0.000979,-0.495,-0.0742,0.0613,0.00899,0.0142,-0.0183,-0.0435
GTCGGCC,0.0532,0.0804,0.276,0.856,0.0294,1.01,0.147,0.149,0.127,0.108
TGAGTTA,0.154,0.0368,0.217,-0.216,0.0999,0.254,0.0306,0.0778,0.181,0.0905
GGGGTTG,0.101,0.034,0.65,1.39,0.0375,1.94,0.198,0.0581,-0.0386,0.0841
GCTTCCG,-0.0244,-0.00665,-0.677,-0.531,-0.0603,-0.874,0.18,-0.046,-0.0152,-0.0913
ATCTTAT,-0.169,-0.153,-0.0478,-0.823,0.0161,-0.523,-2.61,0.126,0.00418,-0.218
CGCGAGA,0.0348,0.0673,0.578,1.15,-0.0115,0.717,0.12,0.00585,0.0943,0.181
ATATGCG,-0.141,-0.0706,0.227,1.55,-0.0437,1.56,0.101,-0.139,-0.173,-0.125

Sequence,uncleaved DNA left (log2) [1],uncleaved DNA left (log2) [2],uncleaved DNA left (log2) [3],uncleaved DNA left (log2) [4],uncleaved DNA left (log2) [5],uncleaved DNA left (log2) [6],uncleaved DNA left (log2) [7],uncleaved DNA left (log2) [8],uncleaved DNA left (log2) [9],uncleaved DNA left (log2) [10]
GACATGA,0.0376,0.0801,0.594,1.48,-0.0404,1.51,0.205,-0.0192,0.00332,0.19
CAGCCGG,0.00234,0.0201,0.322,0.765,0.0778,0.726,0.121,0.182,-0.18,0.0174
CAAGTTC,0.0279,-0.0933,0.0717,-1.65,0.0151,-0.664,0.024,-0.118,-0.069,-0.128
GTATCAG,0.0857,0.0461,-0.211,-0.149,0.0525,-0.747,0.115,0.101,0.000341,0.0125
ATCGTCC,0.0875,0.0397,-0.0915,-0.256,0.0396,-0.385,-0.023,-0.0116,-0.129,-0.0462
CCCCTGT,-0.118,-0.0536,-0.112,-0.566,-0.0661,-0.458,-0.181,-0.165,-0.101,-0.131
GACTACT,-2.78,-2.54,-0.379,-2.25,-0.213,0.623,-2.73,-0.116,0.145,0.141
AGTCACG,-0.0501,-0.149,-0.799,-0.581,0.0154,-1.2,0.0394,-0.0868,-0.0766,-0.12
AGACTCT,0.054,-0.00242,0.566,1.01,0.0594,1.93,-0.0128,0.0349,0.0632,0.0428
GGGTGCC,-0.00469,-0.0196,0.661,1.53,-0.0155,1.94,0.173,0.0191,0.01,0.0686
AGTTATA,-0.0393,-0.0296,-0.0137,-0.867,-9.22e-05,0.0806,-0.806,0.0273,-0.0981,0.0783
GTTACAT,0.00414,0.167,0.592,1.45,0.012,2.1,0.185,0.0151,0.169,0.166
CGAATTC,0.0165,-0.00331,0.0125,-0.092,-0.0108,-0.64,0.102,0.0658,0.0658,0.0149
CTTCTAA,-0.0094,0.0454,-0.0621,-0.544,0.132,-0.553,0.0534,-0.0274,0.0759,0.144
CACACAT,0.0232,-0.0135,-0.0749,-2.31,-0.0877,-0.3,-0.203,0.0547,0.00686,0.00859
TTGCCAG,0.0611,-0.0112,-0.771,0.0504,0.0747,-0.925,-0.239,-0.0606,0.206,-0.156
CCCAATC,0.124,-0.132,-0.226,-0.16,0.0469,-0.386,0.186,-0.0145,-0.0256,-0.0242
TCCTATA,0.0144,-0.0341,-0.0212,-1.51,-0.0438,-0.51,-0.272,0.0826,-0.0113,-0.0281
TCTTGTA,-0.0917,-0.0241,-0.1,-1.09,-0.0494,-1,-0.507,0.0339,-0.00709,-0.179
ATCCCAC,-0.0579,0.0324,-0.0803,-0.292,0.0647,-0.574,0.0348,-0.108,-0.0768,0.143

Sequence,uncleaved DNA left (log2) [1],uncleaved DNA left (log2) [2],uncleaved DNA left (log2) [3],uncleaved DNA left (log2) [4],uncleaved DNA left (log2) [5],uncleaved DNA left (log2) [6],uncleaved DNA left (log2) [7],uncleaved DNA left (log2) [8],uncleaved DNA left (log2) [9],uncleaved DNA left (log2) [10]
AGGCGCG,0.0636,0.0592,-0.711,0.0357,0.08,-0.547,0.3,0.13,0.13,0.0403
CGAGTAT,0.322,0.14,0.325,0.197,0.125,0.677,-0.00279,0.284,0.232,0.213
GGGTAAA,0.0634,0.101,0.848,2,0.00196,2.23,0.211,0.0863,0.134,0.136
GTGCTAT,-0.0554,0.087,0.296,0.901,-0.0931,1.64,-0.0254,0.095,0.0261,0.0262
TATCTTG,-0.0321,-0.0189,-0.482,-2.41,0.0863,-1.12,0.1,-0.0719,-0.00859,-0.203
AGAATGC,-0.0175,-0.043,-0.568,-0.497,-0.112,-1.08,0.0947,-0.0167,0.0497,0.00572
GATCTAT,-0.0417,-0.0134,0.284,0.527,-0.03,1.21,-0.134,0.0885,0.101,0.166
AGGTTCA,-0.0277,0.00398,0.09,-0.266,0.0523,0.223,-0.157,0.0481,0.164,0.187
AGCACCC,-0.00916,-0.0596,0.328,0.811,-0.114,1.18,-0.123,-0.0366,-0.0567,-0.0234
CGGTCCG,-0.0925,-0.00614,-0.851,-0.177,-0.0825,-0.564,0.0213,-0.0419,-0.0726,-0.119
TATTGTG,0.0274,-0.0763,-0.492,0.9,0.0802,-0.227,0.181,0.0154,0.143,0.0118
TTTAGGT,0.0556,-0.0339,0.542,1.2,-0.0413,1.8,0.0364,0.0674,-0.155,0.00618
TACCGAT,0.00295,-0.13,-0.211,-1.1,-0.0143,-0.0579,-0.954,-0.0484,-0.0815,-0.027
ATTTTTG,-0.0216,0.0213,-0.675,-0.453,-0.0206,-1.36,0.141,-0.0187,-0.0646,-0.131
GTTTACA,0.137,0.0983,0.262,0.748,0.0119,1.79,0.128,0.109,0.124,0.0579
GTTGGCC,-0.155,-0.0622,0.132,0.878,-0.0839,1.02,-0.000895,-0.145,-0.0867,-0.00171
CCCATAA,-0.222,-0.0463,-0.27,-0.324,-0.0229,-0.893,-0.0478,-0.208,-0.149,-0.178
AGTAATA,0.0656,-0.0862,-0.05,-0.748,-0.0321,-0.0203,-0.762,0.0367,0.0712,0.0712
GACTACG,0.0347,0.0587,-0.608,-0.812,0.0133,-0.801,0.191,-0.00242,0.0371,0.0756
ATTATTA,-0.0849,-0.189,-0.0767,-1.23,-0.038,-0.67,-0.109,0.0165,0.0397,0.0639
